From paper PMC8144413
Like-named read-outs stand apart in the source and are kept apart here. Results are given in words; binding and its absence hold for the method and conditions named. Binding seen in cells or lysates may run through a third protein. Some entries that bind do so weakly or less than the wild type. For part of these data: Tags and fused reporters may be left off the sequences shown.

The chains behind the UniProt entries cited, without tags or fusion partners.
UniProt O94953: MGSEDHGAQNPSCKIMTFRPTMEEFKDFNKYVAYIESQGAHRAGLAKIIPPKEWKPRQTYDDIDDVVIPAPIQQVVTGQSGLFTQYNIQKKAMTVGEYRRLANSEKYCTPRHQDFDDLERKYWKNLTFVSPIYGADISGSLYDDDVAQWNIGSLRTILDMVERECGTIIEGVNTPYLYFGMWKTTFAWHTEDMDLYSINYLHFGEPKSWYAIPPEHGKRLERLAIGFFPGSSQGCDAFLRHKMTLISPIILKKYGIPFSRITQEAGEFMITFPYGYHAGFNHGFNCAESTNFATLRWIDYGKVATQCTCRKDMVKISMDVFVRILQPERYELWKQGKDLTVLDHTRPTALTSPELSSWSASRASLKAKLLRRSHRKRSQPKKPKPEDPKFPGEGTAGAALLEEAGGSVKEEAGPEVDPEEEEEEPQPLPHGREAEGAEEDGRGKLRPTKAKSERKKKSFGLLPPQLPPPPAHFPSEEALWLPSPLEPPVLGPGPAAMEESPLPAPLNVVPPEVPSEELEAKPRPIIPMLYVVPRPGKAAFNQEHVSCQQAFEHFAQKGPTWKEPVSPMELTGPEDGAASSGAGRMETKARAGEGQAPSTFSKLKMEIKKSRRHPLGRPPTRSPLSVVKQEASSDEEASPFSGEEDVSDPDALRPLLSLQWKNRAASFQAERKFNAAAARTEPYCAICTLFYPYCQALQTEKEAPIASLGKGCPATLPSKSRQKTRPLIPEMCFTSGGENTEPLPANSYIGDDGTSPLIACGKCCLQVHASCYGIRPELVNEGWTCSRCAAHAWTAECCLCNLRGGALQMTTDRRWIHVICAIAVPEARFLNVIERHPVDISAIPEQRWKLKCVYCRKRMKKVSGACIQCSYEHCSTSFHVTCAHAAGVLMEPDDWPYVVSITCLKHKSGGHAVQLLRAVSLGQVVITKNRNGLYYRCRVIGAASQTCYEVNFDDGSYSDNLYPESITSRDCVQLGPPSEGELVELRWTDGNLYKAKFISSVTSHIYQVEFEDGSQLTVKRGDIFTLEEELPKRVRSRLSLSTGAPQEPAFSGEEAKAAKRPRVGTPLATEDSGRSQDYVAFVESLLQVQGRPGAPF
UniProt P01100: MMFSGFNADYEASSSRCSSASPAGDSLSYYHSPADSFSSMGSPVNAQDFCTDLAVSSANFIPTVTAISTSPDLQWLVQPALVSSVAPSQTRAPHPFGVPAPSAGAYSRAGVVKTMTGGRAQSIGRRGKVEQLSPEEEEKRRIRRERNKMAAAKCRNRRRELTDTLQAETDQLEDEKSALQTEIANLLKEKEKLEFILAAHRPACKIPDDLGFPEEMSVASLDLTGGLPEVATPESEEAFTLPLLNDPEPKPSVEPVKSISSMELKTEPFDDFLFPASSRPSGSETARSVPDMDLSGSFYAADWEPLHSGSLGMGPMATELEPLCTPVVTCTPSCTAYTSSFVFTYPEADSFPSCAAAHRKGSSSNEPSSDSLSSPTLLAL
UniProt Q04206: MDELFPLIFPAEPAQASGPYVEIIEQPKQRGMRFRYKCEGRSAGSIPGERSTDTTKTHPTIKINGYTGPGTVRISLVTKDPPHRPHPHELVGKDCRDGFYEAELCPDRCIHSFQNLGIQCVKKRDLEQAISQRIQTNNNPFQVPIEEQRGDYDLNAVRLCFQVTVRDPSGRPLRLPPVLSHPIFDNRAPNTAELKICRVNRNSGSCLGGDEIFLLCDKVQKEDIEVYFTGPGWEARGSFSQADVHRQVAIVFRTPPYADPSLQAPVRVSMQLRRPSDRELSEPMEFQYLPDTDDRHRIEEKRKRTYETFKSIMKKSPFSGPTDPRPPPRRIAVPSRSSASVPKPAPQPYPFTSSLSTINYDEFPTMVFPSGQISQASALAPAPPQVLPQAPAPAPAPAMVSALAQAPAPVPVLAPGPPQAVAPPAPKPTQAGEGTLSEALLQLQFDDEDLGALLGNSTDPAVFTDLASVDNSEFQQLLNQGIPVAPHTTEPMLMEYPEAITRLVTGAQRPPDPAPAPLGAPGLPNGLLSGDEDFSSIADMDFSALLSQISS

B1: HA-NFATc1 (protein, UniProt O95644 1-943)
chain: MPSTSFPVPSKFPLGPAAAVFGRGETLGPAPRAGGTMKSAEEEHYGYASSNVSPALPLPTAHSTLPAPCHNLQTSTPGIIPPADHPSGYGAALDGGPAGYFLSSGHTRPDGAPALESPRIEITSCLGLYHNNNQFFHDVEVEDVLPSSKRSPSTATLSLPSLEAYRDPSCLSPASSLSSRSCNSEASSYESNYSYPYASPQTSPWQSPCVSPKTTDPEEGFPRGLGACTLLGSPRHSPSTSPRASVTEESWLGARSSRPASPCNKRKYSLNGRQPPYSPHHSPTPSPHGSPRVSVTDDSWLGNTTQYTSSAIVAAINALTTDSSLDLGDGVPVKSRKTTLEQPPSVALKVEPVGEDLGSPPPPADFAPEDYSSFQHIRKGGFCDQYLAVPQHPYQWAKPKPLSPTSYMSPTLPALDWQLPSHSGPYELRIEVQPKSHHRAHYETEGSRGAVKASAGGHPIVQLHGYLENEPLMLQLFIGTADDRLLRPHAFYQVHRITGKTVSTTSHEAILSNTKVLEIPLLPENSMRAVIDCAGILKLRNSDIELRKGETDIGRKNTRVRLVFRVHVPQPSGRTLSLQVASNPIECSQRSAQELPLVEKQSTDSYPVVGGKKMVLSGHNFLQDSKVIFVEKAPDGHHVWEMEAKTDRDLCKPNSLVVEIPPFRNQRITSPVHVSFYVCNGKRKRSQYQRFTYLPANVPIIKTEPTDDYEPAPTCGPVSQGLSPLPRPYYSQQLAMPPDPSSCLVAGFPPCPQRSTLMPAAPGVSPKLHDLSPAAYTKGVASPGHCHLGLPQPAGEAPAVQDVPRPVATHPGSPGQPPPALLPQQVSAPPSSSCPPGLEHSLCPSSPSPPLPPATQEPTCLQPCSPACPPATGRPQHLPSTVRRDESPTAGPRLLPEVHEDGSPNLAPIPVTVKREPEELDQLYLDDVNEIIRNDLSSTSTHS
B2: HA-CCAR1 (protein, UniProt Q8CH18 1-1146)
chain: MAQFGGQKNPPWATQFTATAVSQPAALGVQQPSLLGASPTIYTQQTALAAAGLTTQTPANYQLTQTAALQQQAAAVLQQQYSQPQQALYSVQQQLQQPQQTILTQPAVALPTSLSLSTPQPAAQITVSYPTPRSSQQQTQPQKQRVFTGVVTKLHDTFGFVDEDVFFQLGAVKGKTPQVGDRVLVEATYNPNMPFKWNAQRIQTLPNQNQSQTQPLLKTPTAVIQPIVPQTTFGVQAQPQPQSLLQAQISAASITPLLQTQPQPLLQQPQQKAGLLQPPVRIVSQPQPARRLDPPSRFSGRNDRGDQVPNRKDDRSRERDRERRRSRERSPQRKRSRERSPRRERERSPRRVRRVVPRYTVQFSKFSLDCPSCDMMELRRRYQNLYIPSDFFDAQFTWVDAFPLSRPFQLGNYCNFYVMHREVESLEKNMAVLDPPDADHLYSAKVMLMASPSMEDLYHKSCALAEDPQDLRDGFQHPARLVKFLVGMKGKDEAMAIGGHWSPSLDGPNPEKDPSVLIKTAIRCCKALTGIDLSVCTQWYRFAEIRYHRPEETHKGRTVPAHVETVVLFFPDVWHCLPTRSEWETLSRGYKQQLVEKLQGERKKADGEQDEEEKDDGEVKEIATPTHWSKLDPKAMKVNDLRKELESRALSSKGLKSQLIARLTKQLKIEEQKEEQKELEKSEKEEEDEDDKKSEDDKEEEERKRQEEVERQRQERRYILPDEPAIIVHPNWAAKSGKFDCSIMSLSVLLDYRLEDNKEHSFEVSLFAELFNEMLQRDFGVRIYKSLLSLPEKEDKKDKEKKSKKEERKDKKEEREDDIDEPKPKRRKSGDDKDKKEDRDERKKEEKRKDDSKDDDETEEDNNQDEYDPMEAEEAEDEDDDREEEEVKRDDKRDVSRYCKDRPAKDKEKEKPQMVTVNRDLLMAFVYFDQSHCGYLLEKDLEEILYTLGLHLSRAQVKKLLNKVVLRESCFYRKLTDTSKDDENHEESEALQEDMLGNRLLLPTPTIKQESKDGEENVGLIVYNGAMVDVGSLLQKLEKSEKVRAEVEQKLQLLEEKTDEDGKTILNLENSNKSLSGELREVKKDLGQLQENLEVSENMNLQFENQLNKTLRNLSTVMDDIHTVLKKDNVKSEDRDEKSKENGSGV
B3: endogenous CCAR1 (mouse bone marrow-derived macrophages) (protein, UniProt Q8CH18 1-1146)
chain: B2 chain
B4: C-terminal region of CCAR1 (residues 661–1146), HA-tagged (domain or fragment, UniProt Q8CH18 661-1146)
chain: ARLTKQLKIEEQKEEQKELEKSEKEEEDEDDKKSEDDKEEEERKRQEEVERQRQERRYILPDEPAIIVHPNWAAKSGKFDCSIMSLSVLLDYRLEDNKEHSFEVSLFAELFNEMLQRDFGVRIYKSLLSLPEKEDKKDKEKKSKKEERKDKKEEREDDIDEPKPKRRKSGDDKDKKEDRDERKKEEKRKDDSKDDDETEEDNNQDEYDPMEAEEAEDEDDDREEEEVKRDDKRDVSRYCKDRPAKDKEKEKPQMVTVNRDLLMAFVYFDQSHCGYLLEKDLEEILYTLGLHLSRAQVKKLLNKVVLRESCFYRKLTDTSKDDENHEESEALQEDMLGNRLLLPTPTIKQESKDGEENVGLIVYNGAMVDVGSLLQKLEKSEKVRAEVEQKLQLLEEKTDEDGKTILNLENSNKSLSGELREVKKDLGQLQENLEVSENMNLQFENQLNKTLRNLSTVMDDIHTVLKKDNVKSEDRDEKSKENGSGV

Assays:
FLAG-KDM4B WT [1] = target: FLAG-KDM4B WT (UniProt O94953); assay: co-IP; transfected cells (293T named in the methods); NP-40 lysis buffer (10 mM Tris pH 7.9, 150 mM NaCl, 1 mM EDTA, 5% glycerol); immunoprecipitation with anti-FLAG antibody, immunoblot with anti-HA antibody
FLAG-KDM4B WT [2] = target: FLAG-KDM4B WT (UniProt O94953); assay: as above; remark: listed apart in the source
[3] = target: T1, endogenous KDM4B (mouse bone marrow-derived macrophages) (mouse (endogenous in BMMs)) (UniProt Q91VY5); assay: co-IP; endogenous proteins; BMMs stimulated with RANKL (100 ng/mL, 30 min); immunoprecipitation with anti-KDM4B antibody, immunoblot with anti-CCAR1 antibody
T1 sequence: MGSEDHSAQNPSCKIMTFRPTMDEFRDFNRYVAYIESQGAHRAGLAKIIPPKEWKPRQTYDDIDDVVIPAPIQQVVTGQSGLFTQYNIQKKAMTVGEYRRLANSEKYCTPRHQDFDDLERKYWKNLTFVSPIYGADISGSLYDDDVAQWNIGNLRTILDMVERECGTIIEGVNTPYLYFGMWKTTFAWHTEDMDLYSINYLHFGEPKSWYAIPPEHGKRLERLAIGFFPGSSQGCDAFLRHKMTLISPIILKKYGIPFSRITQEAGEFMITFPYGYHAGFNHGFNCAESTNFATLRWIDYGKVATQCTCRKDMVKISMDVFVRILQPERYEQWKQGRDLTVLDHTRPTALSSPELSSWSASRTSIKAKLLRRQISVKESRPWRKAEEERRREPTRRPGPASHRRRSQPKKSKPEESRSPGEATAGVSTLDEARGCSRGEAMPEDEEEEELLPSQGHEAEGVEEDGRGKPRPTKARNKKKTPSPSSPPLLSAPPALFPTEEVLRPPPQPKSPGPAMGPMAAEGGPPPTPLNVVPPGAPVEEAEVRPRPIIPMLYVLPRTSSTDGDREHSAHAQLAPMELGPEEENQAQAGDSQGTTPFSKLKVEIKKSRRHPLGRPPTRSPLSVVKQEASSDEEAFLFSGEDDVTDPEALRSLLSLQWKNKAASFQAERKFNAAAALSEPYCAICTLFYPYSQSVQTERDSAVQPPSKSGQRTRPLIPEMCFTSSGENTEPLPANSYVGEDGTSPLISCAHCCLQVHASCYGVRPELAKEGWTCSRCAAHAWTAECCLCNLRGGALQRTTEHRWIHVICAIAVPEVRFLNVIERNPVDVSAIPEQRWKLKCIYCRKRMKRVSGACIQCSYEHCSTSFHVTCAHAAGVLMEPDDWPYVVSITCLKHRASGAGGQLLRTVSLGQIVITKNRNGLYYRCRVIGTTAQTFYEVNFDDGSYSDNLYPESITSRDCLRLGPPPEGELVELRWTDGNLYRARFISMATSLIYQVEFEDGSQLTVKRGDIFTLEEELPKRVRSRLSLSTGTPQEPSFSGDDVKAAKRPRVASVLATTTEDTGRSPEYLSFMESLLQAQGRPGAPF

Molecule | binding (FLAG-KDM4B WT [1]) | binding (FLAG-KDM4B WT [2]) | also measured
HA-c-Fos (from UniProt P01100 1-380) | no binding | – | –
HA-p65 (from UniProt Q04206 1-551) | binds | – | –
B1 | – | no binding | –
B2 | – | binds | –
B3 | – | – | binding [3]: binds
B4 | – | binds | –
